167 variants from the RNAGym collection of RNA variant scans (doi:10.1101/gad.245936.114) can be followed below.

Variants at the background level are over-represented here.

B1: tRNA (parent)
chain: CUCUCGGUAGCCAAGUUGGUUUAAGGCGCAAGACUUUAAUUUAUCACUACGAAAUCUUGAGAUCGGGCGUUCGACUCGCCCCCGGGAGAUUUUUUCCUCGAGCAA

In this data set the parent is B1. Description: nonsense suppression (GFP-seq) (ratio to wild type); higher = more function; SUP4oc tRNA, yeast GFP reporter sort-seq. A digest of the protocol: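 Yeast were grown in raffinose/galactose medium with 80 mg/L adenine, each strain bearing a genome-integrated ochre-suppressor tRNA variant from a ~3% random-mutation library, a galactose-driven GFP ochre reporter, and RFP. After sorting into GFP/RFP bins, every bin was sequenced on an Illumina platform at phred ≥30. The GFPSEQ value, a measure of nonsense suppression, is the weighted bin median GFP/RFP relative to the unmutated parent tRNA, using each variant's estimated cell share per bin as the weight. Only variants with ≥100 reads and ≥30 cells were included.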
On to G6A A9U G15U G18A C77A, for which the nonsense suppression was at most 0.026.
On to G15A G25U, for which the nonsense suppression is at most 0.026.
Consider A31U G78U G88U, for which the nonsense suppression is at most 0.026.
As to A24G A33G U71C, the nonsense suppression is at most 0.026.
As for C5U U22G C27U, the nonsense suppression is at most 0.026.
On to U57C C77A A89U, for which the nonsense suppression was at most 0.026.
A9C C11A U16G A23G U63A G73A: the nonsense suppression was at most 0.026.
Turning to U2G A74C, the nonsense suppression was at most 0.026.
For the variant C11G G61C G67C G78C, the nonsense suppression was at most 0.026.
To A9U G32U belongs at most 0.026; to C34G U76C, at most 0.026; to U21C G67A G69C, at most 0.026.
In the case of G28U C34A A87U, the nonsense suppression was at most 0.026.
Regarding U20C C64A, the nonsense suppression is at most 0.026.
On to G7U C27G, for which the nonsense suppression is at most 0.026.
On to C11U C64G C72U C79A G88A, for which the nonsense suppression was at most 0.026.
In the case of C34U U57C, the nonsense suppression was at most 0.026.
To U4A U16A G73U C83A belongs at most 0.026; to C11G U20G A33U, at most 0.026; to G7U G18A C83U, at most 0.026.
In the case of U35G U55A, the nonsense suppression is at most 0.026.
Next, C12U U21G U22G C27A C34A: at most 0.026; U22G A54U G88U: at most 0.026.
Next, G26C U57G A60G G69A: at most 0.026; A31G U58A U63C: at most 0.026.
Turning to G67U A89C, the nonsense suppression is at most 0.026.
Consider G25A G26A A30G A31U C77U, for which the nonsense suppression is at most 0.026.
On to A24C U35A A54G U63G, for which the nonsense suppression was at most 0.026.
As for U55G G65C, the nonsense suppression was at most 0.026.
As for G15A A31C A33C G65A, the nonsense suppression was at most 0.026.
C3A A54G G88C: the nonsense suppression is at most 0.026.
Next, C5U U22A A24G U58G: at most 0.026; U8C G84A A89G: at most 0.026.
Next, C5G U16C: at most 0.026; A9G G78C: at most 0.026.
With C27A U71C G88A, the nonsense suppression is at most 0.026.
On to C1A C56A A62U, for which the nonsense suppression was at most 0.026.
Next, C5G U76G: at most 0.026; U8A G25C: at most 0.026.
Turning to U21C C27A, the nonsense suppression is at most 0.026.
To G19U A33G C79G belongs at most 0.026.
To C3G U20A A54G U70A belongs at most 0.026; to A24U U58G A60G G88A, at most 0.026; to U4C G28U, at most 0.026.
Regarding C1G G15U G61U, the nonsense suppression is at most 0.026.
As to G26A A31G G61C G66A, the nonsense suppression was at most 0.026.
Regarding G7C C12A G25C U76A, the nonsense suppression was at most 0.026.
Regarding U17G G66A C80A, the nonsense suppression was at most 0.026.
Consider U4G U16C U35G A62U C72A, for which the nonsense suppression is at most 0.026.
In the case of C11U U20G A33C C34G C56U U58G, the nonsense suppression was at most 0.026.
To U8G U16C U35A G59U belongs at most 0.026.
As for A13U G15A C27G, the nonsense suppression is at most 0.026.
Next, C64U G67A G85C: at most 0.026; G18U A30U G78U: at most 0.026.
Next, G6U G59A: at most 0.026; U35G G84U: at most 0.026.
Regarding U63A G88A A89U, the nonsense suppression is at most 0.026.
Regarding C11U A14C U16C, the nonsense suppression was at most 0.026.
Next, G6U A54U C82A: at most 0.026; C29U U55G C82G A87G: at most 0.026.
Next, G7A G78C C83U G88U: at most 0.026; G59A G65A A89C: at most 0.026.
Regarding U8C A74U G84A, the nonsense suppression is at most 0.026.
Next, C5U U8G G88A: at most 0.026.
With A14U U70C, the nonsense suppression was at most 0.026.
To C64U C79G belongs at most 0.026; to C11U U70G C79A, at most 0.026; to A14U U35A U71G C77A, at most 0.026.
With C29U G67U G78U, the nonsense suppression was at most 0.026.
As for A23G A30U, the nonsense suppression turned out to be 0.0397.
To G7A A89U belongs at most 0.026; to C11A A14G A30U G66U A87C, at most 0.026.
With G15C C83A G84A, the nonsense suppression was at most 0.026.
For the variant A33G G88U, the nonsense suppression is at most 0.026.
Next, G6U G7A A9C G85C: at most 0.026.
For U57A G85A, the nonsense suppression turned out to be 0.165.
For the variant U17G G28C U70C, the nonsense suppression was at most 0.026.
For C72A C79A, the nonsense suppression is at most 0.026.
As for C34G U70G A87C, the nonsense suppression was at most 0.026.
To U2C C5U C72A belongs at most 0.026; to C3A G19U A62G, at most 0.026.
As for C3G C75A, the nonsense suppression is at most 0.026.
Regarding G10U A24G A33G, the nonsense suppression is at most 0.026.
Next, A30G G78U: at most 0.026; U20G A23C: at most 0.026; C3A A14G G73C G85C: at most 0.026.
C12A G69C G85A G86U G88U: the nonsense suppression is at most 0.026.
To U4G G66C belongs at most 0.026.
Turning to C1G A30G, the nonsense suppression is at most 0.026.
As to G15U G26C G59U, the nonsense suppression was at most 0.026.
C1G U4C G73C A74U: the nonsense suppression is at most 0.026.
Consider U4A A54U G59A G66C A74U, for which the nonsense suppression is at most 0.026.
In the case of A30U C56U A62G G78A, the nonsense suppression is at most 0.026.
In the case of C3U U4C C27A, the nonsense suppression is at most 0.026.
For the variant U22C C27G, the nonsense suppression is at most 0.026.
For G26A G32U G66C, the nonsense suppression is at most 0.026.
Take G7A A60C G85U: the nonsense suppression is at most 0.026.
On to G6A C75A, for which the nonsense suppression is at most 0.026.
As for G28U C56U, the nonsense suppression was at most 0.026.
Take G7U A62U C72G: the nonsense suppression is at most 0.026.
To U35A G61A belongs at most 0.026.
Turning to C3G C27A U57A, the nonsense suppression is at most 0.026.
For A30U, the nonsense suppression was determined as 0.575.
With U35A C81G, the nonsense suppression is at most 0.026.
Turning to A14C G15C, the nonsense suppression was at most 0.026.
On to G7C U76G G86U, for which the nonsense suppression was at most 0.026.
In the case of G15U A60C C80A, the nonsense suppression was at most 0.026.
For G6U C11A C29U G61A A89C, the nonsense suppression is at most 0.026.
For A31C C82G, the nonsense suppression is at most 0.026.
With C5U C12U U21A G66C, the nonsense suppression is at most 0.026.
Regarding A30C C75G, the nonsense suppression was at most 0.026.
Consider A14G C64A C68G G78A, for which the nonsense suppression was at most 0.026.
With C12A U17A C29A G59A, the nonsense suppression was at most 0.026.
For the variant G7U A23U G88C, the nonsense suppression was at most 0.026.
Regarding A13C U17C U22G G85A, the nonsense suppression is 0.81.
As to A24C A87U, the nonsense suppression is 0.0833.
C11U U63C U76C C80G C82G: the nonsense suppression is at most 0.026.
As to C11U U17C A24U C27G U76A, the nonsense suppression is at most 0.026.
For the variant U63G C80G C83U, the nonsense suppression was at most 0.026.
Next, C1U C5G G6C U70A C75G: at most 0.026; A14U C81A: at most 0.026; A30G C68A A74U: at most 0.026.
To U8C U22C C56U G66U C72G belongs at most 0.026; to C3U U63C C79U, at most 0.026; to C1U U35C, at most 0.026.
As to A30U U58G C79A, the nonsense suppression is at most 0.026.
Next, C12G U35A U58A U63A G78A: at most 0.026.
As to C11U G32U U55A U57G, the nonsense suppression is at most 0.026.
To C3A A9U C77G C80G belongs at most 0.026.
For A9U U57G G65A A74C, the nonsense suppression was at most 0.026.
On to G15U U35C G88C, for which the nonsense suppression is at most 0.026.
On to U17C A54U U58G, for which the nonsense suppression was at most 0.026.
To U2C U63G G73A belongs at most 0.026.
With G32U, the nonsense suppression is at most 0.026.
With G6A G15A G61A, the nonsense suppression is at most 0.026.
To U57A G59U U70A belongs at most 0.026; to G10U A24U C27U, at most 0.026; to U4A U70C, at most 0.026.
A30G A31G A74C C80A: the nonsense suppression is at most 0.026.
Next, A24G U55A: at most 0.026; U2G G88A: at most 0.026.
On to U16G A54U U71A C72U G73C C80A, for which the nonsense suppression is at most 0.026.
As for C12G U57A, the nonsense suppression is at most 0.026.
Next, A13U U16C U63G: 0.18.
With C29G C72A A87U, the nonsense suppression was at most 0.026.
To C3G C11U C29G belongs at most 0.026; to U8C G78A C79U, at most 0.026; to A9C C12U A24U G84U, at most 0.026.
As to A13G C29A G86A, the nonsense suppression was at most 0.026.
To C5G G66C belongs at most 0.026; to A24U A31C U70C G73A, at most 0.026.
A14C C27U C81G: the nonsense suppression is at most 0.026.
As to U8A G66C, the nonsense suppression is at most 0.026.
On to G59A C82A, for which the nonsense suppression is at most 0.026.
For U2A A24G, the nonsense suppression was at most 0.026.
Next, C3U C72G: at most 0.026.
As for C29A A87U, the nonsense suppression was at most 0.026.
As for G6U G61A U70G, the nonsense suppression was at most 0.026.
For the variant C56A A74C, the nonsense suppression is at most 0.026.
To G10C C34A C56A belongs at most 0.026.
Next, A33G C72A: at most 0.026; A13C U20G C27A A87U: at most 0.026.
Take C27U G66C A87C: the nonsense suppression was at most 0.026.
As to C5A G10C C11G C12A G15A A89G, the nonsense suppression is at most 0.026.
Next, G65U C81A C82A: at most 0.026.
In the case of U2C G6A A30C C34A, the nonsense suppression was at most 0.026.
As for A9C A54U G65U, the nonsense suppression was at most 0.026.
